{"source": "the supplement of paper PMC9446081", "note": "The campaign covered roughly 39,000 compounds. About 220 (0.56%) showed activity. Some of the results follow.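 Note: static incubation at 37 °C against the wild-type strain, values averaged over two biological replicates.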"}
{"system": "Escherichia coli K-12 BW25113", "assay": "relative growth (OD600 normalised to plate interquartile mean) (fraction); higher = less growth inhibition, active = 0.2 or less", "conditions": "50 µM; LB; incubation time: overnight (16-24 h)"}
{"smiles": "COC(CNC(=O)C1CCN(S(=O)(=O)c2cccc3nsnc23)CC1)OC", "relative growth": "inactive: 0.942"}
{"smiles": "O=S(=O)(NCCCCN(C/C=C/c1ccccc1)C/C=C/c1ccccc1)c1cccc2cnccc12", "relative growth": "inactive: 0.966"}
{"smiles": "Cc1noc(C)c1S(=O)(=O)Nc1ccc2c(c1)C(=O)N([C@@H](C)CO)C[C@H](C)[C@@H](CN(C)CC1CCCCC1)OCCCC[C@@H](C)O2", "relative growth": "inactive: 0.969"}
{"smiles": "O=C(OC[C@H]1O[C@@H](OC(=O)c2cc(O)c(O)c(O)c2)[C@H](O)[C@@H](OC(=O)c2cc(O)c(O)c(O)c2)[C@@H]1O)c1cc(O)c(O)c(O)c1", "relative growth": "inactive: 0.641"}
{"smiles": "CC(=O)c1c(O)cc(O)cc1O", "relative growth": "inactive: 0.863"}
{"smiles": "C[C@H](CO)N1C[C@H](C)[C@H](CN(C)S(=O)(=O)c2cccs2)Oc2ccc(NC(=O)CCC(F)(F)F)cc2CC1=O", "relative growth": "inactive: 1.04"}
{"smiles": "C[C@@H]1CCCCO[C@H](CN(C)S(=O)(=O)c2ccccc2)[C@H](C)CN([C@@H](C)CO)C(=O)c2cc(NC(=O)Nc3ccc(F)cc3)ccc2O1", "relative growth": "inactive: 1.02"}
{"smiles": "COC(=O)[C@@]12O[C@@H]1[C@H](O[C@@H]1O[C@H](CO)[C@@H](O)[C@H](O)[C@H]1O)C[C@H]1[C@]3(C)C[C@@H](c4ccoc4)OC(=O)[C@H]3CC[C@]12C", "relative growth": "inactive: 1.01"}
{"smiles": "C[C@@H]1CCCCO[C@@H](CN(C)Cc2ccc(Cl)c(Cl)c2)[C@@H](C)CN([C@H](C)CO)C(=O)c2cc(NC(=O)CCCCCC(=O)Nc3ccccc3N)ccc2O1", "relative growth": "inactive: 1.01"}
{"smiles": "C[C@]1(C(=O)NCc2ccccc2)c2ccccc2C(=O)N(Cc2ccc(OC(F)(F)F)cc2)[C@H]1c1ccc(CO)cc1", "relative growth": "inactive: 0.983"}
{"smiles": "C[C@@H]1C[C@H](C)CN(Cc2nc3c(c(=O)n(C)c(=O)n3C)n2CC(N)=O)C1", "relative growth": "inactive: 1.03"}
{"smiles": "C[C@H](CO)N1C[C@H](C)[C@H](CN(C)C(=O)Nc2ccc(F)cc2)Oc2ccc(NS(=O)(=O)c3cn(C)cn3)cc2CC1=O", "relative growth": "inactive: 1.02"}
{"smiles": "CS(=O)(=O)N1[C@@H]2c3ccc(-c4cccc(F)c4)c(=O)n3C[C@H]1[C@H](CO)[C@H]2C(=O)N1CCOCC1", "relative growth": "inactive: 0.977"}
{"smiles": "COc1ccc(-c2cnc3c(c2)C(=O)N([C@H](C)CO)C[C@H](C)[C@H](CN(C)C(=O)Cc2ccccn2)O3)cc1", "relative growth": "inactive: 1.01"}
{"smiles": "c1cn(CCN2CCNCC2)cn1", "relative growth": "inactive: 0.838"}
{"smiles": "C[C@@H]1CN([C@H](C)CO)S(=O)(=O)c2ccc(/C=C/c3ccccc3)cc2O[C@H]1CN(C)C(=O)Nc1cc(F)ccc1F", "relative growth": "inactive: 1.02"}
{"smiles": "C=CC[C@@H](CC(=O)N(CCO)Cc1ccccc1)C(=O)N[C@@H](COC(=O)[C@H](CC=C)CC(=O)OC(C)(C)C)Cc1c[nH]c2ccccc12", "relative growth": "inactive: 1.12"}
{"smiles": "C[C@@H]1CCCCO[C@@H](CN(C)S(=O)(=O)c2ccc(Cl)cc2)[C@@H](C)CN([C@@H](C)CO)C(=O)c2cc(NS(=O)(=O)c3cccs3)ccc2O1", "relative growth": "inactive: 1.02"}
{"smiles": "COC(=O)c1ccc2c(c1)no[n+]2[O-]", "relative growth": "inactive: 1.01"}
{"smiles": "C[C@@H]1CCCCO[C@@H](CN(C)C(=O)Cc2ccccc2)[C@H](C)CN([C@H](C)CO)C(=O)c2cc(NC(=O)Cc3ccccc3)ccc2O1", "relative growth": "inactive: 1.02"}
{"smiles": "Cc1cc(C(=O)Nc2cccc3c2O[C@@H](CN(C)S(C)(=O)=O)[C@@H](C)CN([C@@H](C)CO)C3=O)n(C)n1", "relative growth": "inactive: 1"}
{"smiles": "CC1(C)CCC2=C(O1)C(=O)c1ccccc1C2=O", "note": "[alpha-LAPACHONE]", "relative growth": "inactive: 1.01"}
{"smiles": "C[C@@H]1CN([C@@H](C)CO)C(=O)c2cc(NC(=O)Nc3ccc(C(F)(F)F)cc3)ccc2O[C@@H]1CN(C)C(=O)NC1CCCCC1", "relative growth": "inactive: 1.03"}
{"smiles": "COc1ccc(S(=O)(=O)N(C)C[C@@H]2OCc3cn(nn3)CCCC(=O)N([C@H](C)CO)C[C@H]2C)cc1", "relative growth": "inactive: 0.983"}
{"smiles": "COCCN1C[C@H](C(=O)O)CC1=O", "relative growth": "inactive: 0.986"}
{"smiles": "COc1ccc(S(=O)(=O)Nc2ccc3c(c2)C(=O)N([C@@H](C)CO)C[C@@H](C)[C@H](CN(C)C(=O)Nc2ccc(C(F)(F)F)cc2)OCCCC[C@@H](C)O3)cc1", "relative growth": "inactive: 1.02"}
{"smiles": "C/C1=C/[C@@]23O[C@@]2(C[C@H](C)[C@H]3O[C@H]2O[C@@H](CO)[C@@H](O)[C@@H](O)[C@@H]2O)C(=O)[C@H](C)[C@H](O)[C@@H]2C([C@H](O)[C@@H]1O)C2(C)C", "note": "(stereo partly drawn)", "relative growth": "inactive: 1"}
{"smiles": "C[C@H](CO)N1C[C@H](C)[C@@H](CN(C)S(C)(=O)=O)Oc2ccc(NS(=O)(=O)c3ccccc3)cc2C1=O", "relative growth": "inactive: 0.842"}
{"smiles": "C[C@H]1CN([C@@H](C)CO)C(=O)Cc2cc(NC(=O)CCC(F)(F)F)ccc2O[C@H]1CN(C)S(=O)(=O)c1cccs1", "relative growth": "inactive: 1.01"}
{"smiles": "Cc1ccc(S(=O)(=O)N(C)C[C@H]2OCCCC[C@H](C)Oc3ccc(NS(=O)(=O)c4ccc(F)cc4)cc3C(=O)N([C@@H](C)CO)C[C@@H]2C)cc1", "relative growth": "inactive: 1.01"}
{"smiles": "COCC(=O)Nc1ccc2c(c1)C(=O)N(C)[C@@H]1CC[C@@H](CC(=O)NC3Cc4ccccc4C3)O[C@@H]1CO2", "relative growth": "inactive: 1"}
{"smiles": "Nc1ccc(C(=O)N2CCOCC2)cc1", "relative growth": "inactive: 1.02"}
{"smiles": "C[C@@H]1CCCCO[C@H](CN(C)C(=O)C2CCCCC2)[C@H](C)CN([C@@H](C)CO)C(=O)c2cc(NC(=O)Nc3ccccc3)ccc2O1", "relative growth": "inactive: 0.994"}
{"smiles": "O=C(O)c1ccc2[nH]cnc2n1", "relative growth": "inactive: 1.01"}
{"smiles": "CCCNC(=O)N1C[C@H](C)[C@@H](OC)CN(C)C(=O)c2ccc(NS(=O)(=O)CC(F)(F)F)cc2OC[C@@H]1C", "relative growth": "inactive: 0.985"}
{"smiles": "C[C@H]1CN([C@@H](C)CO)C(=O)CCCn2nncc2CO[C@@H]1CN(C)S(=O)(=O)c1ccc(-n2cccn2)cc1", "relative growth": "inactive: 0.852"}
{"smiles": "COc1cccc(CNC(=O)C[C@H]2C=C[C@H](NC(=O)C3CCOCC3)[C@H](CO)O2)c1", "relative growth": "inactive: 0.99"}
{"smiles": "CCS(=O)(=O)NCC[C@@H]1CC[C@@H](NS(=O)(=O)c2cccc(F)c2)[C@@H](CO)O1", "relative growth": "inactive: 1.01"}
{"smiles": "C[C@H](CO)N1C[C@H](C)[C@@H](CN(C)C(=O)c2ccccc2)Oc2cc(C#CC3(O)CCCC3)ccc2S1(=O)=O", "relative growth": "inactive: 1"}
{"smiles": "C[C@@H]1CCCCO[C@H](CN(C)Cc2ccccc2)[C@@H](C)CN([C@@H](C)CO)C(=O)c2cc(NC(=O)CCCCCC(=O)Nc3ccccc3N)ccc2O1", "relative growth": "inactive: 0.998"}
{"smiles": "COC(=O)C[C@@H]1CC[C@H]2[C@H](COc3ccc(NS(=O)(=O)c4ccccc4Cl)cc3C(=O)N2C)O1", "relative growth": "inactive: 0.998"}
{"smiles": "CO[C@H]1CN(C)C(=O)c2cc(NC(=O)C3CCOCC3)ccc2OC[C@H](C)N(Cc2cccnc2)C[C@H]1C", "relative growth": "inactive: 0.985"}
{"smiles": "C[C@@H]1CN([C@H](C)CO)C(=O)c2cc(C#Cc3cccc(F)c3)cnc2O[C@H]1CN(C)CC1CCOCC1", "relative growth": "inactive: 0.984"}
{"smiles": "COc1ccc(NC(=O)N(C)C[C@H]2OCCCC[C@@H](C)Oc3ccc(NS(=O)(=O)c4ccc(Cl)cc4)cc3C(=O)N([C@@H](C)CO)C[C@@H]2C)cc1", "relative growth": "inactive: 0.998"}
{"smiles": "CC(=O)OC1(C(C)=O)CCC2C3C=C(C)C4=CC(=O)CCC4(C)C3CCC21C", "note": "(stereo not drawn)", "relative growth": "inactive: 0.977"}
{"smiles": "Cc1noc(C)c1NC(=O)Nc1ccc2c(c1)C(=O)N([C@@H](C)CO)C[C@@H](C)[C@H](CN(C)S(=O)(=O)c1ccccc1)O2", "relative growth": "inactive: 0.999"}
{"smiles": "Cc1noc(C)c1NC(=O)N(C)C[C@@H]1OCCCC[C@@H](C)Oc2ccc(NS(=O)(=O)c3ccc(F)cc3)cc2C(=O)N([C@@H](C)CO)C[C@H]1C", "relative growth": "inactive: 0.983"}
{"smiles": "CN1CCCN(C[C@@H]2CN(C(=O)Cn3cccn3)C[C@@H]2CO)CC1", "relative growth": "inactive: 1"}
{"smiles": "COCC(=O)Nc1ccc2c(c1)C(=O)N(C)C[C@H](OC)[C@H](C)CN(C(=O)Cc1cccnc1)[C@@H](C)CO2", "relative growth": "inactive: 0.995"}
{"smiles": "C[C@@H]1CN([C@@H](C)CO)C(=O)c2cccc(NS(=O)(=O)c3ccc(Cl)cc3)c2O[C@H]1CN(C)C(=O)Nc1ccc(C(F)(F)F)cc1", "relative growth": "inactive: 1.01"}
{"smiles": "Cc1ccccc1/C=C(\\C#N)c1nc(-c2ccccc2)cs1", "relative growth": "inactive: 1.01"}
{"smiles": "O=C(C[C@H]1C[C@@H]2c3cc(NC(=O)Nc4ccccc4)ccc3O[C@@H]2[C@@H](CO)O1)NCCN1CCCCC1", "relative growth": "inactive: 0.994"}
{"smiles": "C[C@@H]1CCCCO[C@@H](CN(C)C(=O)c2ccccc2)[C@@H](C)CN([C@@H](C)CO)C(=O)c2cc(NC(=O)Nc3ccc4c(c3)OCO4)ccc2O1", "relative growth": "inactive: 0.996"}
{"smiles": "OCC1c2ccccc2-c2ccccc21", "relative growth": "inactive: 0.986"}
{"smiles": "O=C(O)C1(O)CC(O)C(O)C(O)C1", "note": "(stereo not drawn)", "relative growth": "inactive: 0.994"}
{"smiles": "Cc1csc2ncnc(Cl)c12", "relative growth": "inactive: 0.974"}
{"smiles": "COCC#Cc1ccc2c(c1)O[C@H](CN(C)S(=O)(=O)c1cccc(F)c1)[C@H](C)CN([C@H](C)CO)S2(=O)=O", "relative growth": "inactive: 1.02"}
{"smiles": "C[C@@H]1CN([C@H](C)CO)S(=O)(=O)c2ccc(C#C[C@@H](C)O)cc2O[C@@H]1CN(C)C", "relative growth": "inactive: 0.978"}
{"smiles": "O=C(NC1CC1)c1n[nH]c(=O)c2ccccc12", "relative growth": "inactive: 1.02"}
{"smiles": "C=CC[C@]1(C(=O)NCCN2CCOCC2)COC(c2ccc(OCCCO)cc2)=N1", "relative growth": "inactive: 0.92"}
{"smiles": "C[C@H](CO)N1C[C@H](C)[C@@H](CN(C)CC2CC2)Oc2ccc(NS(=O)(=O)c3ccccc3)cc2CC1=O", "relative growth": "inactive: 0.984"}
{"smiles": "C[C@@H]1CN([C@H](C)CO)C(=O)c2cccc(NS(=O)(=O)c3ccc(Cl)cc3)c2O[C@H]1CN(C)Cc1ccc(-c2ccccc2)cc1", "relative growth": "inactive: 0.922"}
{"smiles": "Cc1ccc(S(=O)(=O)Nc2ccc3c(c2)C(=O)N([C@@H](C)CO)C[C@H](C)[C@@H](CN(C)C(=O)c2ccccc2)OCCCC[C@H](C)O3)cc1", "relative growth": "inactive: 1"}
